From PubChem BioAssay AID445 (National Center for Advancing Translational Sciences (NCATS), 2006)
Among all 110,000 compounds or so, about 40 (0.04%) were called active. This list was built around the results that the source calls inconclusive (neither active nor inactive); the mix of calls is not that of the screen. Calls follow the shape of the dose curve; as a rule, active = well fitted curve in the direction sought with a large enough effect in the signal ratio (not every such curve was filed as active); inconclusive = small, poorly fitted or top-dose-only effect, or a change in a side signal; inactive = flat fitted curve, though single readings scatter; the % refers to the signal ratio. Potencies beside an inconclusive call are fits to weak or partial responses and may not hold up.

experiment: IkB Signaling; conditions: ABC-DLBCL IkBa-CBG/CBR dual luciferase ratio (green luciferase fused to IkBa over red control in OCI-Ly3 lymphoma cells), 4 h; IkBa stabilization activation: at 57.1 µM (top of the series), scaled: untreated 0%, proteasome inhibitor 100% unless noted;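 as to IkBa stabilization activation: 0% = basal untreated cells and 100% = reference inhibitor full response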
Procedure, shortened: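 In this assay, an IκBα–CBG68 fusion accumulates when IKK-driven degradation is blocked; native CBR normalizes for cell number. OCI-Ly3 cells were treated 4 h with compound and doxycycline, then green and red light read after Chroma-Glo addition.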
Potency is read from the fitted curve at half-maximal effect.

SMILES	IkBa stabilization activation	Potency
CCOc1ccc(NC(=O)C2=C(C)C(=O)OC23CCC(C)CC3)cc1 (stereo unspecified)	inconclusive: -0.642% [signal inhibitor]	–
COc1ccc(-c2cc(C)no2)cc1S(=O)(=O)N1CCCC(C)C1 (stereo unspecified)	inconclusive: 9.29% [signal activator]	–
COc1cc(C2=NOC(C(=O)Nc3ccc(C)cc3)C2)cc(OC)c1OC (stereo unspecified)	inconclusive: 3.95% [signal inhibitor]	–
COC(=O)C(C)n1cnc2c(cnn2-c2ccc(Cl)cc2)c1=O (stereo unspecified)	inconclusive: 6.63% [signal inhibitor]	–
Cc1cc(NC(=O)C2CCC2)n(-c2ccccn2)n1	inactive: 0.00163%	–
CCOc1ccc2nc(N3CCCC(C(=O)Nc4ccc(CC)cc4)C3)sc2c1 (stereo unspecified)	inactive: -1.77%	–
COCCNc1nc(-c2cccc(NS(C)(=O)=O)c2)nc2ccccc12	inactive: -6.49% [at 11.4 µM, scaled: untreated 0%, proteasome inhibitor 100%]	–
Cc1ccc(NC(=O)Cn2c(=O)nc(-c3ccccc3)c3ccccc32)cc1	inconclusive: 1.4% [signal inhibitor]	–
Cc1cccc(C(=O)n2nc(-c3cccnc3)nc2NCc2ccc(F)cc2)c1	inconclusive: 1.34% [signal inhibitor]	–
[N-]=[N+]=Nc1ccc(C(=O)CSC[C@@H](NC(=O)CC[C@@H](N)C(=O)O)C(=O)NCC(=O)O)cc1	inactive: -2.71%	–
CCOC(=O)Cc1c(C)nc2cc(-c3ccc(C(C)(C)C)cc3)nn2c1C	inconclusive: 8.46% [signal inhibitor]	–
O=C1c2ccccc2N2C(=O)c3ccccc3C2N1Cc1ccco1 (stereo unspecified)	inactive: -2.65%	–
Cc1ccc(NC(=O)c2c3c(nc4ccccc24)C(=O)N(C2CCCCC2)C3)cc1F	inactive: -0.528%	–
COc1ccc(-n2ncc(C(=O)N3CCN(C4CCCCC4)CC3)c2C2CCN(C(=O)OC(C)(C)C)CC2)cc1	inconclusive: 1.39% [signal inhibitor]	–
C=CCc1ccccc1OCc1nc2ccc(C)cc2[nH]1	inconclusive: 2.58% [signal inhibitor]	–
Cn1c(=O)c2c(nc(NC3CCCCC3)n2CC(=O)C23CC4CC(CC(C4)C2)C3)n(C)c1=O	inconclusive: 3.87% [signal inhibitor]	–
CCOC(=O)c1c(NC(=O)CSc2nc(-c3ccc(OC)cc3)cc(C(F)(F)F)n2)sc(C)c1C	inconclusive: 4.86% [signal inhibitor]	–
C/C=C\C[C@@H](C)[C@@H](O)[C@H]1C(=O)N[C@@H](CC)C(=O)N(C)CC(=O)N(C)[C@@H](CC(C)C)C(=O)N[C@@H](C(C)C)C(=O)N(C)[C@@H](CC(C)C)C(=O)N[C@@H](C)C(=O)N[C@H](C)C(=O)N(C)[C@@H](CC(C)C)C(=O)N(C)[C@@H](CC(C)C)C(=O)N(C)[C@@H](C(C)C)C(=O)N1C	inconclusive: 2.51% [signal inhibitor]	–
COC(=O)c1nnn(CC(=O)Nc2c(C)cccc2C)c1N	inactive: 3.69%	–
Cc1ccc(C(=O)NCC(c2cccs2)S(=O)(=O)c2ccccc2)cc1C (stereo unspecified)	inconclusive: 2.16% [signal inhibitor]	–
CC(C)Nc1nc2c(S(=O)(=O)c3cccc(Cl)c3)nnn2c2ccsc12	inactive: -1.8%	–
CCNc1ncc2nc(CCc3ccccc3)c(=O)n(-c3ccccc3)c2n1	inactive: -2.66% [at 11.4 µM, scaled: untreated 0%, proteasome inhibitor 100%]	–

SMILES	IkBa stabilization activation	Potency
CC(C)CCNC(=O)c1ccc2nc(CCc3ccccc3)oc2c1	inactive: -1.85%	–
O=C(O)[C@@H]1CCCN1Cc1cc2ccccc2c2ccccc12	inactive: -1.34% [at 11.4 µM, scaled: untreated 0%, proteasome inhibitor 100%]	–
CCCCC(CC)CNC(=O)CCCCn1c(=O)[nH]c2ccsc2c1=O (stereo unspecified)	inconclusive: -2.21% [signal inhibitor]	–
Cc1ccc(-c2nc3ccccc3[nH]2)cc1NC(=O)c1ccco1	inactive: -0.0512%	–
CCC(=O)N1CCc2cc(CNS(=O)(=O)c3ccc(C(C)C)cc3)ccc21	inconclusive: -0.446% [signal inhibitor]	–
COC(=O)c1ccc2c(=O)n(CCCCCC(=O)N3CCN(c4cc(C)ccc4C)CC3)c(=O)[nH]c2c1	inconclusive: -5.95% [signal inhibitor]	–
COc1ccccc1C(=O)Nc1cccc(N(C)S(C)(=O)=O)c1	inactive: -2.31%	–
COc1cc(NC(=O)CCc2c(C)nc3c(-c4ccc(F)cc4)c(C)nn3c2C)cc(OC)c1OC	inactive: -1.47%	–
CCC(C)Nc1ccc(NC(C)CC)cc1 (stereo unspecified)	inconclusive: -7.04% [signal inhibitor]	–
CCCSc1ncc(Cl)c(C(=O)N2CCN(c3cccc(Cl)c3)CC2)n1	inconclusive: 0.0953% [signal inhibitor]	–
CCOc1ccc(NC(=O)CC2C(=O)N(c3ccc(OC)cc3)C(=O)N2C2CCCCC2)cc1 (stereo unspecified)	inconclusive: 2.08% [signal inhibitor]	–
Cc1cccc(N2CCN(C(=O)c3cnn(-c4ccc(F)cc4F)c3C3CCN(C(=O)OC(C)(C)C)CC3)CC2)c1C	inconclusive: 0.417% [signal inhibitor]	–
CCCNC(=O)CSc1c2c(nc3ccc(Cl)cc13)CCCC2	–	inconclusive: 31.6 µM [rising, partial curve]
CCOC(=O)c1cc2c(=O)n3ccccc3nc2n(Cc2ccco2)c1=NC(=O)c1cccc(C)c1	inconclusive: 3.39% [signal inhibitor]	–
Cc1ccc(NC(=O)CSc2nc3ccccc3c(=O)n2CCC(=O)NC2CCCCC2)cc1C	inconclusive: -2.69% [signal inhibitor]	–
Cc1cccc(N2CCN(C(=O)C3CCN(S(=O)(=O)c4c(C)noc4/C=C/c4ccccc4F)CC3)CC2C)c1 (stereo unspecified)	inconclusive: 0.755% [signal inhibitor]	–
Cc1ccc(C2C=C(c3ccccc3)Nc3nc(NS(=O)(=O)c4ccc(C)cc4)nn32)cc1 (stereo unspecified)	inconclusive: 5.32% [signal inhibitor]	–
Cc1ccc2oc(=O)c3cnn(CC(=O)N4CCN(c5ccccc5F)CC4)c3c2c1	inconclusive: -0.252% [signal inhibitor]	–
CCc1ccccc1NC(=O)c1ccc(Cn2nc(N3CCN(c4ccccc4)CC3)ccc2=O)o1	inconclusive: 8.97% [signal inhibitor]	–
Cc1nc2c3ccccc3nc(NNC(=O)CCC(=O)N3CCN(c4cc(Cl)ccc4C)CC3)n2n1	inconclusive: 6.06% [signal inhibitor]	–
CC(=O)NC(N1CCCCC1)C(F)(F)C(F)(F)C(F)(F)C(F)F (stereo unspecified)	inactive: 0.492%	–
O=C(C1CCN(S(=O)(=O)c2ccc3ccccc3c2)CC1)N1CCN(c2ncccn2)CC1	inconclusive: 5.85% [signal inhibitor]	–

SMILES	IkBa stabilization activation	Potency
COc1ccc(Nc2cc(C)nc(N3CCOCC3)n2)cc1	inactive: -0.439%	–
CNC(=O)CCCN1C(=O)CCn2nc(-c3cn(C)c4ccccc34)cc21	inactive: 0.645%	–
COc1cccc(NC(=O)c2sc3nc(C)c(C(=O)Nc4ccc(C)cc4C)c(-c4ccco4)c3c2N)c1	inconclusive: 9.15% [signal inhibitor]	–
COc1ccc(OCC(=O)Nc2cccc(C(=O)OCc3cc(=O)n4nc(C)sc4n3)c2)cc1	–	inconclusive: 12.6 µM [signal inhibitor]
Cc1cc(OC(C)C(=O)N2CCC(c3nc4ccccc4o3)CC2)ccc1Cl (stereo unspecified)	inconclusive: -3.02% [signal inhibitor]	–
Cc1ccc(N(C)C(CNS(=O)(=O)c2ccccc2)c2ccccc2)cc1 (stereo unspecified)	inconclusive: 0.59% [signal inhibitor]	–
COc1ccc(S(=O)(=O)Cc2ccc(C(=O)N3CCN(c4cccc(C)c4C)CC3)o2)cc1	inconclusive: 1.75% [signal inhibitor]	–
CC(C)C(=O)Nc1cccc(-c2cn3ccsc3n2)c1	inactive: 3.21%	–
CCCNC(=O)C1CCN(C(=O)N2CC(C)Oc3ccccc32)CC1 (stereo unspecified)	–	inconclusive: 0.251 µM [signal inhibitor]
CCCCN(C)S(=O)(=O)c1ccc(NC2=NS(=O)(=O)c3ccccc32)cc1	inconclusive: 7.48% [signal inhibitor]	–
COc1ccc(-n2ccnc2SCC(=O)Nc2cccc(OC)c2)cc1	inactive: 4.56%	–
O=C(Nc1sc2c(c1C(=O)O)CCCC2)c1cccs1	–	inconclusive: 15.8 µM [signal inhibitor, partial curve]
Cc1ccc(NC(=O)Cn2cc(C(=O)c3ccco3)c3ccccc32)cc1C	inconclusive: 12.5% [signal inhibitor]	–
CCCCCCNC(=O)c1c[nH]c2ccc(S(=O)(=O)N(C)c3ccc(C(C)C)cc3)cc2c1=O	inactive: 0.935%	–
COc1ccc2nc(NC(=O)C3CCN(S(=O)(=O)c4cccc5nsnc45)CC3)sc2c1	inconclusive: -5.32% [signal inhibitor]	–
Cc1ccc(NS(=O)(=O)c2ccc(OCC(=O)NCc3ccco3)cc2)cc1	inconclusive: 4.66% [signal inhibitor]	–
Cc1ccccc1NC(=O)CNc1ccccc1N1CCCCC1	inconclusive: 2.35% [signal inhibitor]	–
COc1cccc(OC(=O)CSc2nnc(-c3cccs3)o2)c1	inconclusive: 3.85% [signal inhibitor]	–
Clc1cccc(-c2nc3ccccn3c2Nc2ccc3c(c2)OCCO3)c1	inconclusive: 12.2% [signal inhibitor]	–
COC(=O)c1ccc(Nc2nc(-c3ccccc3Cl)nc3ccccc23)cc1	inconclusive: 17.1% [signal inhibitor]	–
COc1ccc(N2C(=O)CSC23C(=O)N(CC(=O)Nc2ccccc2F)c2ccccc23)cc1 (stereo unspecified)	inconclusive: 1.06% [signal inhibitor]	–
CC(C)C1N=C2c3ccccc3N=C(SCc3cc(=O)n4cc(Cl)ccc4n3)N2C1=O (stereo unspecified)	inactive: -1.83%	–
